# Data from patent publication US20180312565A1 (Affibody, published 2018).
# Residue numbers refer to the chain shown, from its start.
# B1: Z17746-ABD (designed binder)
# chain: AQHDEALEVDAKYAKERNEAAYEILYLPNLTNAQKWAFIWKLDDDPSQSSELLSEAKKLNDSQAPKVDYVLAEAKVLANRELDKYGVSDYYKNLINNAKTVEGVKALIDEILAALPYVPG
# notes: domain: GA3
# B2: Z17748-ABD (designed binder)
# chain: B1 chain with E19A, N32Q, A33S
# notes: domain: GA3
# B3: Z17756-ABD (designed binder)
# chain: B1 chain with E19A, Y22F
# notes: domain: GA3
# B4: Z17758-ABD (designed binder)
# chain: B1 chain with E19K, A33K
# notes: domain: GA3
# B5: Z17772-ABD (designed binder)
# chain: B1 chain with E19K, Y22H
# notes: domain: GA3
# B6: Z17825-ABD (designed binder)
# chain: B1 chain with E19L
# notes: domain: GA3
# B7: Z17843-ABD (designed binder)
# chain: B1 chain with E19A, A33K
# notes: domain: GA3
# B8: Z17911-ABD (designed binder)
# chain: B1 chain with E19N
# notes: domain: GA3
# B9: Z17928-ABD (designed binder)
# chain: B1 chain with E19A, N32Q, A33K, K35R
# notes: domain: GA3
# B10: Z17950-ABD (designed binder)
# chain: B1 chain with E19A, Y22Q, N32S, A33Q, K35R
# notes: domain: GA3
# B11: Z17964-ABD (designed binder)
# chain: B1 chain with E19A
# notes: domain: GA3
# B12: Z17968-ABD (designed binder)
# chain: B1 chain with E19Q, Y22F, N32Q, A33Q
# notes: domain: GA3
# B13: Z17972-ABD (designed binder)
# chain: B1 chain with E19I, A33N
# notes: domain: GA3
# B14: Z17975-ABD (designed binder)
# chain: B1 chain with E19H, A33K
# notes: domain: GA3
# B15: Z17978-ABD (designed binder)
# chain: B1 chain with N32Q, A33S
# notes: domain: GA3
# B16: Z17990-ABD (designed binder)
# chain: B1 chain with A33R
# notes: domain: GA3
# B17: Z17995-ABD (designed binder)
# chain: B1 chain with E19T, Y22Q, A33Y
# notes: domain: GA3
# B18: Z17997-ABD (designed binder)
# chain: B1 chain with E19L, N32Q, A33K, K35R
# notes: domain: GA3
# B19: Z17999-ABD (designed binder)
# chain: B1 chain with E19D, N32Q, A33E, K35R
# notes: domain: GA3
# B20: Z18000-ABD (designed binder)
# chain: B1 chain with E19V, A33Q
# notes: domain: GA3
# B21: Z18005-ABD (designed binder)
# chain: B1 chain with N32Q, A33V
# notes: domain: GA3
# B22: Z18008-ABD (designed binder)
# chain: B1 chain with E19T, N32Q, A33S, K35R
# notes: domain: GA3
# B23: Z18021-ABD (designed binder)
# chain: B1 chain with E19F, N32S, A33Q
# notes: domain: GA3
# B24: Z18022-ABD (designed binder)
# chain: B1 chain with E19S, A33Q
# notes: domain: GA3
# Molecular target: T1, human PD-L1 Fc Chimera (R&D Systems, cat. no. 156-B7-100) (human, UniProt Q9NZQ7 19-239, biotinylated with Sulfo-NHS-LC-Biotin in ELISA and AlphaLISA; not biotinylated in SPR)
# T1 construct: bought; also called hPD-L1; biotinylated hPD-L1; not shown: Fc part of the bought Fc chimera, not described
# Assay: ELISA titration, captured Z-ABD
# T1 sequence (Q9NZQ7 19-239, change not shown): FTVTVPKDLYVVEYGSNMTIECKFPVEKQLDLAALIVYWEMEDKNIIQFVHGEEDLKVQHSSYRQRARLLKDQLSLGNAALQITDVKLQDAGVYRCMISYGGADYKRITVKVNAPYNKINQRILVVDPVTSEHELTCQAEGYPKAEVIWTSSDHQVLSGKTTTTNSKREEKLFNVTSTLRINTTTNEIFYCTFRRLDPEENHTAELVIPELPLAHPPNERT
row,Binder,EC50 [nM]
1,B1,0.067
2,B2,0.067
3,B3,0.067
4,B4,0.08
5,B5,0.088
6,B6,0.067
7,B7,0.086
8,B8,0.07
9,B9,0.083
10,B10,0.078
11,B11,0.077
12,B12,0.082
13,B13,0.074
14,B14,0.089
15,B15,0.065
16,B16,0.08
17,B17,0.084
18,B18,0.077
19,B19,0.075
20,B20,0.079
21,B21,0.078
22,B22,0.073
23,B23,0.088
24,B24,0.074
